The values that follow come from publication PMC9911399, “Two distinct binding modes provide the RNA-binding protein RbFox with extraordinary sequence specificity”.

Substitutions are numbered along the chain they refer to; changes in the protein carry UniProt numbers. Some of the results follow.

To fix the notation:
T1: RBFOX1 RRM (Homo sapiens, UniProt Q9NWB1 109-208)
T1 sequence: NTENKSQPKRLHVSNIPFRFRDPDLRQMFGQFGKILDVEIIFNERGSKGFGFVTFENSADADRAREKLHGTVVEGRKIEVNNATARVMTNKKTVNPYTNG

B1: CCGUUCC (DNA:RNA)
RNA: GGGAGACCGGAAUUCAGAUUGUCCCCGUUCCUUAAAUCCCGUCGUAGCCACCA
DNA 1: CAATCTGAATTCCGGTCTCCC
DNA 2: TGGTGGCTACGACGGGATT
B2: AUUACAC (DNA:RNA)
RNA: B1 RNA with C25A, C26U, G27U, U28A, U29C, C30A
DNA 1: CAATCTGAATTCCGGTCTCCC
DNA 2: TGGTGGCTACGACGGGATT
B3: GUUGGCA (DNA:RNA)
RNA: B1 RNA with C25G, C26U, G27U, U28G, U29G, C31A
DNA 1: CAATCTGAATTCCGGTCTCCC
DNA 2: TGGTGGCTACGACGGGATT
B4: AACGCCC (DNA:RNA)
RNA: B1 RNA with C25A, C26A, G27C, U28G, U29C
DNA 1: CAATCTGAATTCCGGTCTCCC
DNA 2: TGGTGGCTACGACGGGATT
B5: AGUUACG (DNA:RNA)
RNA: B1 RNA with C25A, C26G, G27U, U29A, C31G
DNA 1: CAATCTGAATTCCGGTCTCCC
DNA 2: TGGTGGCTACGACGGGATT
B6: CUUGGUC (DNA:RNA)
RNA: B1 RNA with C26U, G27U, U28G, U29G, C30U
DNA 1: CAATCTGAATTCCGGTCTCCC
DNA 2: TGGTGGCTACGACGGGATT
B7: GCUUGUC (DNA:RNA)
RNA: B1 RNA with C25G, G27U, U29G, C30U
DNA 1: CAATCTGAATTCCGGTCTCCC
DNA 2: TGGTGGCTACGACGGGATT
B8: GUGCCGG (DNA:RNA)
RNA: B1 RNA with C25G, C26U, U28C, U29C, C30G, C31G
DNA 1: CAATCTGAATTCCGGTCTCCC
DNA 2: TGGTGGCTACGACGGGATT
B9: UCAGAAU (DNA:RNA)
RNA: B1 RNA with C25U, G27A, U28G, U29A, C30A, C31U
DNA 1: CAATCTGAATTCCGGTCTCCC
DNA 2: TGGTGGCTACGACGGGATT
B10: GCCUUAC (DNA:RNA)
RNA: B1 RNA with C25G, G27C, C30A
DNA 1: CAATCTGAATTCCGGTCTCCC
DNA 2: TGGTGGCTACGACGGGATT
B11: CUCCUGA (DNA:RNA)
RNA: B1 RNA with C26U, G27C, U28C, C30G, C31A
DNA 1: CAATCTGAATTCCGGTCTCCC
DNA 2: TGGTGGCTACGACGGGATT
B12: UGCGGCC (DNA:RNA)
RNA: B1 RNA with C25U, C26G, G27C, U28G, U29G
DNA 1: CAATCTGAATTCCGGTCTCCC
DNA 2: TGGTGGCTACGACGGGATT
B13: AAACAAG (DNA:RNA)
RNA: GGGAGACCGGAAUUCAGAUUGUCCAAACAAGUUAAAUCCCGUCGUAGCCACCA
DNA 1: CAATCTGAATTCCGGTCTCCC
DNA 2: TGGTGGCTACGACGGGATT
B14: GGCAAGG (DNA:RNA)
RNA: B13 RNA with A25G, A26G, A27C, C28A, A30G
DNA 1: CAATCTGAATTCCGGTCTCCC
DNA 2: TGGTGGCTACGACGGGATT
B15: UGCUCUU (DNA:RNA)
RNA: B1 RNA with C25U, C26G, G27C, U29C, C30U, C31U
DNA 1: CAATCTGAATTCCGGTCTCCC
DNA 2: TGGTGGCTACGACGGGATT
B16: UCUACUA (DNA:RNA)
RNA: B1 RNA with C25U, G27U, U28A, U29C, C30U, C31A
DNA 1: CAATCTGAATTCCGGTCTCCC
DNA 2: TGGTGGCTACGACGGGATT
B17: AAUUAAC (DNA:RNA)
RNA: B13 RNA with A27U, C28U, G31C
DNA 1: CAATCTGAATTCCGGTCTCCC
DNA 2: TGGTGGCTACGACGGGATT
B18: GGCUAAA (DNA:RNA)
RNA: B13 RNA with A25G, A26G, A27C, C28U, G31A
DNA 1: CAATCTGAATTCCGGTCTCCC
DNA 2: TGGTGGCTACGACGGGATT
B19: CCAAGCC (DNA:RNA)
RNA: B1 RNA with G27A, U28A, U29G
DNA 1: CAATCTGAATTCCGGTCTCCC
DNA 2: TGGTGGCTACGACGGGATT
B20: UAAGGAU (DNA:RNA)
RNA: B13 RNA with A25U, C28G, A29G, G31U
DNA 1: CAATCTGAATTCCGGTCTCCC
DNA 2: TGGTGGCTACGACGGGATT
B21: GAAUGAA (DNA:RNA)
RNA: B13 RNA with A25G, C28U, A29G, G31A
DNA 1: CAATCTGAATTCCGGTCTCCC
DNA 2: TGGTGGCTACGACGGGATT
B22: ACUAUCC (DNA:RNA)
RNA: B1 RNA with C25A, G27U, U28A
DNA 1: CAATCTGAATTCCGGTCTCCC
DNA 2: TGGTGGCTACGACGGGATT
B23: GGGUUGU (DNA:RNA)
RNA: B1 RNA with C25G, C26G, C30G, C31U
DNA 1: CAATCTGAATTCCGGTCTCCC
DNA 2: TGGTGGCTACGACGGGATT
B24: UGUUCAG (DNA:RNA)
RNA: B13 RNA with A25U, A26G, A27U, C28U, A29C
DNA 1: CAATCTGAATTCCGGTCTCCC
DNA 2: TGGTGGCTACGACGGGATT
B25: CGGUGUU (DNA:RNA)
RNA: B1 RNA with C26G, U29G, C30U, C31U
DNA 1: CAATCTGAATTCCGGTCTCCC
DNA 2: TGGTGGCTACGACGGGATT
B26: AUUUAUC (DNA:RNA)
RNA: B13 RNA with A26U, A27U, C28U, A30U, G31C
DNA 1: CAATCTGAATTCCGGTCTCCC
DNA 2: TGGTGGCTACGACGGGATT
B27: GACCGAC (DNA:RNA)
RNA: B13 RNA with A25G, A27C, A29G, G31C
DNA 1: CAATCTGAATTCCGGTCTCCC
DNA 2: TGGTGGCTACGACGGGATT
B28: CAGGGCG (DNA:RNA)
RNA: B1 RNA with C26A, U28G, U29G, C31G
DNA 1: CAATCTGAATTCCGGTCTCCC
DNA 2: TGGTGGCTACGACGGGATT
B29: CGCAGCC (DNA:RNA)
RNA: B1 RNA with C26G, G27C, U28A, U29G
DNA 1: CAATCTGAATTCCGGTCTCCC
DNA 2: TGGTGGCTACGACGGGATT
B30: ACCUUGG (DNA:RNA)
RNA: B1 RNA with C25A, G27C, C30G, C31G
DNA 1: CAATCTGAATTCCGGTCTCCC
DNA 2: TGGTGGCTACGACGGGATT
B31: UAUCGCA (DNA:RNA)
RNA: B13 RNA with A25U, A27U, A29G, A30C, G31A
DNA 1: CAATCTGAATTCCGGTCTCCC
DNA 2: TGGTGGCTACGACGGGATT

In the assay the target is T1, RBFOX1 RRM. Put plainly: EMSA; HiTS-Eq, 1 nM pool, 10 min; buffer printed only for the single-RNA assays: 10 mM Tris pH 7.5, 150 mM NaCl, 3.4 mM EDTA, 0.001% NP-40, 30 C. The settings on record: tags: His6 N-terminal (pET28a); label: 5' 32P. The procedure, abridged: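 Purified RbFox RRM (wild type or mutant) was equilibrated for 10 min in 50 µL with 1 nM of a 5′-radiolabelled pool of RNA with 7 randomized nucleotides, its flanks annealed to DNA oligonucleotides, across increasing protein concentrations. Free RNA was separated by 8% native PAGE, excised, reverse-transcribed, PCR-barcoded and sequenced on an Illumina HiSeq 2500. Relative association constants came from read-count changes of each variant against the control reaction, normalised to the cognate motif.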
(In general: Mobility shift assays separate free from complexed probe on a gel.)
Consider B1, for which the binding signal is 0.00895 KA relative to UGCAUGU.

As to B2, the binding signal is 0.00181 KA relative to UGCAUGU.

On to B3, for which the binding signal was 0.024 KA relative to UGCAUGU.

As to B4, the binding signal is 0.00394 KA relative to UGCAUGU.

Take B5: the binding signal was 0.00991 KA relative to UGCAUGU.

For the molecule B6, the binding signal was 0.0198 KA relative to UGCAUGU.

With B7, the binding signal was 0.0386 KA relative to UGCAUGU.

As to B8, the binding signal was 0.0127 KA relative to UGCAUGU.

With B9, the binding signal was 0.00617 KA relative to UGCAUGU.

As to B10, the binding signal is 0.00923 KA relative to UGCAUGU.

As for B11, the binding signal was 0.014 KA relative to UGCAUGU.

As to B12, the binding signal is 0.0274 KA relative to UGCAUGU.

Regarding B13, the binding signal is 0.000969 KA relative to UGCAUGU.

For B14, the binding signal is 0.0129 KA relative to UGCAUGU.

Take B15: the binding signal is 0.0146 KA relative to UGCAUGU.

Regarding B16, the binding signal was 0.00365 KA relative to UGCAUGU.

For B17, the binding signal was 0.0029 KA relative to UGCAUGU.

As to B18, the binding signal was 0.003 KA relative to UGCAUGU.

With B19, the binding signal was 0.00133 KA relative to UGCAUGU.

For the molecule B20, the binding signal was 0.00587 KA relative to UGCAUGU.

For B21, the binding signal was 0.0162 KA relative to UGCAUGU.

For B22, the binding signal is 0.00194 KA relative to UGCAUGU.

Consider B23, for which the binding signal was 0.0284 KA relative to UGCAUGU.

In the case of B24, the binding signal is 0.0191 KA relative to UGCAUGU.

As to B25, the binding signal was 0.0192 KA relative to UGCAUGU.

Regarding B26, the binding signal is 0.00213 KA relative to UGCAUGU.

As for B27, the binding signal is 0.015 KA relative to UGCAUGU.

For B28, the binding signal is 0.0128 KA relative to UGCAUGU.

Regarding B29, the binding signal is 0.00522 KA relative to UGCAUGU.

On to B30, for which the binding signal was 0.00664 KA relative to UGCAUGU.

As to B31, the binding signal is 0.02 KA relative to UGCAUGU.
